{
  "source": "patent US20240269263A1",
  "about": "(published 2024)",
  "key": {"[1]": {"molecular_target": "T1, human IL-10 Receptor α (human, UniProt Q13651 22-235, limits assumed)", "T1 construct": "Coated on ELISA plates at 2 µg/mL; also called hIL-10Rα; hIL-10Rα subunit", "T1 sequence": "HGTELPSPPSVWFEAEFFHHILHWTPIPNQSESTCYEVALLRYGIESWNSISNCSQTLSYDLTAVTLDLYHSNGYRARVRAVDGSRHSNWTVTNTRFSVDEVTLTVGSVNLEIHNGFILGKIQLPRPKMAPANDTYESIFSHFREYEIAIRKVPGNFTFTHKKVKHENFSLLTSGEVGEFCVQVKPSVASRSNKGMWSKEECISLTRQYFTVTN", "test": "ELISA, receptor subunit coated at 2 µg/mL, fusion protein supernatant, anti-human IgG-HRP detection, A450; compared with hIL-10R BFP-10"}, "[2]": {"molecular_target": "T2, human IL-10 Receptor β (human, UniProt Q08334 20-220, limits assumed)", "T2 construct": "Coated on ELISA plates at 2 µg/mL; also called hIL-10Rβ; hIL-10Rβ subunit", "T2 sequence": "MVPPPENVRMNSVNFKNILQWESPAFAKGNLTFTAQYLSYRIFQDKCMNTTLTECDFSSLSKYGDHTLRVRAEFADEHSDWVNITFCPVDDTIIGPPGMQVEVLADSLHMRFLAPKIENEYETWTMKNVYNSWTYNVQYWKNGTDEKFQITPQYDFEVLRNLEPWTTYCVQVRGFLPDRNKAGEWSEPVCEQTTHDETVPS", "test": "ELISA, receptor subunit coated at 2 µg/mL, fusion protein supernatant, anti-human IgG-HRP detection, A450"}},
  "data": [
    {"binder": "hIL-10R BFP-1 (SEQ ID NO: 522) (Fc fusion, Added to the ELISA as supernatant protein) [gap - human IgG4 Fc with S228P F234A L235A (EU numbers) and a few adjoining residues]GGGGGGGSGGGGSGGGGSSPGQGTQSENSCTHFPGNLPNMLRDLRDAFSRVKTFFQMKDQLDNLLLKESLLEDFKGYLGCQALSEMIQFYLEEVMPQAENQDPDIKAHVNSLGENLKTLRLRLRRCHRFLPCENKSKAVEQVKNAFNKLQEKGIYKAMSEFDIFINYIEAYMTMKIRN", "values": [
      {"measurement": "binding result", "setting": "[1]", "result": "binds"}
    ]},
    {"binder": "hIL-10R BFP-10 (SEQ ID NO: 534) (Fc fusion, Added to the ELISA as supernatant protein) [gap - human IgG4 Fc with S228P F234A L235A (EU numbers) and a few adjoining residues]GGGGGGGSGGGGSGGGGSKGRDSKPSPACDPMHGALAGIFKELRTTYRSVREALQTKDTVYYVSLFHEQLLQEMLSPVGCRVTNELMQHYLDGVLPRAFHCGYDNATLNALHALSSSLSTLYQHMLKCPALACTGQTPAWTQFLDTEHKLDPWKGTVKATAEMDLLLNYLETFLLQS", "values": [
      {"measurement": "binding result", "setting": "[2]", "result": "binds"}
    ]}
  ]
}
